B1: CPEB3 Ribozyme (parent)
chain: UAACAGGGGGCCACAGCAGAAGCGUUCACGUCGCAGCCCCUGUCAGAUUCUGGUGAAUCUGCGAAUUCUGCUGUAUAUCUC

Read counts are not given, so values of variants with three or more changes are uncertain.

Variants of B1 are the subject of the series. Put plainly: self-cleavage, relative activity (ratio to wild type); higher = more cleavage; in vitro, sequencing. The essentials: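 After error-prone PCR and barcoding, CPEB3 ribozyme mutant libraries were transcribed with T7 RNA polymerase at 37°C for 5 hours, then given 15 min with DNase I before an EDTA stop, and they cleaved during both steps. Reverse transcription with template switching preceded Illumina sequencing. Relative activity divides a variant's cleaved/total read fraction by the unmutated ribozyme's. At least 5 reads were required per variant, and three batches were averaged.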
In the case of A3U C44A U66A U69C, the self-cleavage came to 0.39.
To A3G G8C A21G U43A G70A belongs 0.08; to A3G U31C A57G U72C, 0.93; to A3U G10A A28G A35U U48C U51A, 0.2.
With A3G U25C U26C C39U G55A U74C the figure was 0.09; with A3G U26C U31A A35G G52C U60C U80A, 0.18.
To A3G U25G U43C belongs 0.08; to A3G U25C U26C A28U C62U U69G, 0.06; to C4A C11U U43C A64G, 0.13.
Turning to A3G U26A C32U, the self-cleavage was determined as 0.14.
With A3G G6A A28G U51C U78A the figure was 0.25; with A3U A13U U26A U58C U60A U66C, 0.24.
To A3G G6A U25C A56G U60A U69A belongs 0.04; to A3G U25C U72C, 0.25; to A3G G16A G24A U25A C44U, 0.36.
On to A3G G53A U74C, for which the self-cleavage was 1.26.
To A3G G52U A77G U78A belongs 1.27; to A3U A20G U48C U51G A64G U74C A75G, 0.33.
With A3U A20U U25C U41A A57U C59A U69C the figure was 0.07; with A3U U25G A45G U49A U72A, 0.2; with A3G U31C U72A A77U, 0.47.
To A3G U43A U69C belongs 0.67; to C4A C23A G46C, 0.12.
C4A A20U A35U U41A A64G U67C: the self-cleavage is 0.08.
With A3G G24A U25C A35G U41C the figure was 0.09; with A3U G8C U51C A57G, 0.16; with A3U U31C U58C U69A, 0.26.
With A3U C4U U26C A35G, the self-cleavage worked out at 1.22.
In the case of A3U G16A U58C, the self-cleavage was 0.33.
With A3G G9A C32G U67C U78C U80G the figure was 0.05; with A3U U41C A56G, 0.68.
With A3G G19A G33C the figure was 0.37; with A3G U48C U72A, 0.99; with A3U A15G U41A A45G A57G U80C, 0.03.
To A3U U26C U41A belongs 0.11; to A3U A13G A18C C40U A45G U76A U80C, 0.37.
On to A3G G16U A21G, for which the self-cleavage came to 0.16.
Take A3G U25C U54C: the self-cleavage is 0.46.
To A3G U72C U76A belongs 1.15; to A3G U66C U67C, 0.34.
With A3U A5U A20G A45U U67C U78C the figure was 0.41.
For the variant A3G G16C G53A, the self-cleavage came to 0.47.
Take A3G U49C C50A U74C: the self-cleavage is 1.04.
With A3G U31A C59A the figure was 0.25.
With A3U G8A U25C A28G the figure was 0.09.
For the variant A3U A13G U31A U41C U51A U69A G73A, the self-cleavage worked out at 0.51.
Regarding A3U C68U U72A A77U U80A, the self-cleavage is 0.47.
With A3G U54A A65U U80C the figure was 0.38.
To A3G G9A A65G U76A belongs 0.17.
With A3G U43A A56G the figure was 0.98; with A3G U43A U76A, 1.11.
For the variant A3G U25C C34G, the self-cleavage came to 0.41.
With A3G G6C G16C U69A the figure was 0.32; with A3U A21G U26A U41A U74C, 0.09; with A3G U48C U69A, 0.34.
With A3G G10C A64U the figure was 0.38.
With A3G U25A G61A the figure was 0.16; with A3G C34G A35C, 0.16.
As for A3G U41A U60C U74G U76C, the self-cleavage came to 0.12.
On to A3G G7C A15G A20G, for which the self-cleavage was found to be 0.16.
For A3G U51A U60C A75G, the self-cleavage amounted to 0.42.
With A3G U31A A35U G36C A75U the figure was 0.71; with A3G G7C U26G U54C, 0.08; with A3U G9A A28U, 0.3.
C4A A15G A57G: the self-cleavage amounted to 0.64.
Turning to A3G G19U U25C U41C, the self-cleavage was 0.32.
As to A3G U66C A75G, the self-cleavage was 0.3.
To A3G G10U C39A A75G belongs 0.21.
With A3G U26C U41A U74A the figure was 0.67.
With A3U C62U G70A, the self-cleavage came to 0.17.
With A3U A18U U26C A47U the figure was 0.26; with A3U C27A U31A U51C, 0.11.
For A3G U26G A35G C38A A47G, the self-cleavage came to 0.26.
To A3U A45U U49C belongs 0.32; to C4A A5U A18U A56G C62U, 0.28; to A3U U26C A35U U49C U67C U80C, 0.25.
With A3U U54C A56G A57U U60C U69C the figure was 0.29; with A3G G10A C59G, 0.08; with A3G G30A U60C A65C A77G, 0.22.
For A3G G9U U26G U67C, the self-cleavage is 0.27.
Take A3U C14U G33A U54C U66C: the self-cleavage amounted to 0.11.
With A3G U31A A64G U78A the figure was 0.37; with A3G U31A G36A U51A G53U, 0.08.
Consider A3G U41C U51C U60C U80A, for which the self-cleavage was determined as 0.64.
To A3U A65G U66C U80C belongs 0.47.
As to A3U A13G U43C U49C, the self-cleavage stood at 0.07.
To A3G G8A C34U A57U U74A belongs 0.05; to A3G U48C A56U U60C C62G, 0.23.
To A3G C29U A45U U60A belongs 0.72; to A3U C14A C23A C27G A35U C37U U78C, 0.07.
Turning to A3U G7U A28C U31A U41C U58C, the self-cleavage was 0.05.
On to A3G U26C A28G U41C, for which the self-cleavage is 0.4.
With A3G U66G U78A the figure was 0.45; with A3G C40U U69A, 0.43.
To A3G U25C U31C A56G belongs 0.48; to A3G G9A A13C G24C U31A A35G, 0.44; to C4A C11G U49C A56G, 0.5.
To A3G U25A A28G C29G U49C U58C A65G belongs 0.11; to A3U C11U U69A U78C U80A, 0.21.
A3G C37A U41A A45G A65U A75U: the self-cleavage was 0.23.
With A3U U49C U51C the figure was 0.39; with A3G U41A C62G G63A U74C, 0.21.
On to A3U G6A U25C A45G U66C, for which the self-cleavage is 0.23.
With A3U C12U A56G the figure was 1.03.
Turning to A3G G7U C11G U25C, the self-cleavage was found to be 0.25.
A3U A28G U51A U78C: the self-cleavage was 0.37.
To A3U U26C A35U U43A U78A belongs 0.44.
As for A3G U25A C44U U72C, the self-cleavage was found to be 0.08.
For the variant A3G U41A U49C U69A, the self-cleavage amounted to 0.2.
With A3U A18U A20G A28G A35G A65G U80C the figure was 0.38; with A3G G16A A28G U80C, 0.25.
As to A3G U26A A35U A56G C62G U69C, the self-cleavage was determined as 0.25.
With A3G C38A G42A A45G A47G A56G C79A the figure was 0.04; with A3U U26C C39A C44G, 0.11.
To A3U U43C U69G belongs 0.26; to A3G U54C U66C, 0.29; to A3U A15U U31C G61U U74A, 0.39.
With A3U G46A G63A U72C the figure was 0.09.
Take A3U A28G U69A U72A: the self-cleavage is 0.16.
With A3G C38A U60C C62G U66C A77G the figure was 0.09; with A3U C29U U51A U60C A64U, 0.28.
Turning to A3U A18G U51A U60C, the self-cleavage came out at 0.22.
As to A3U A13C A35C, the self-cleavage was 0.67.
To A3G G9C G30A U67A U69C U80C belongs 0.06; to A3U U54C U67C, 0.43; to A3U G7C U31A U43C U72C A75G, 0.25.
Consider A3U G8U U51A U74C A75U, for which the self-cleavage turned out to be 0.09.
With A3U A18G U51C U54C U80A the figure was 1.22; with A3G U26A C50G A57G, 0.39; with A3G G24A U76C, 0.23.
With A3U G24A A28G U41A the figure was 0.17; with A3U C12U G16A U31A U60C, 0.12; with A3U G7U G10A A13U G52U U58C U72C, 0.08.
Turning to A3G G16C C27A U67C, the self-cleavage came out at 0.25.
To A3G U26C A64G belongs 0.72; to A3G G6A U25C A57G, 0.44; to A3G G8A G46A A65G U72A, 0.07.
With A3U U43C U54C the figure was 0.48.
With A3U A47G U66C U72A A75G U80A the figure was 0.32; with A3G U26A U51C, 0.59; with A3G G8U A13U U41C U51A, 0.09.
As for A3G G30A A47G, the self-cleavage turned out to be 0.38.
To A3U G8U A47G A56G U69G belongs 0.05.
To A3G C68U U74C belongs 1.04; to A3G G9A C23U U51C, 0.07; to A3G G10C A15U U26A C38U U48C A65G, 0.13.
On to C4A A13G A35G U43C U51A U54C A65U, for which the self-cleavage was 0.06.
To A3G U54C A56U U58C U66C U74A A77G belongs 0.11; to A3U U43C G55A, 0.45; to A3U A5G U25A U43C, 0.55.
With A3U U48A U72A U74C the figure was 0.29.
With A3U A47G C59U U74A the figure was 1.06; with A3U A57G U74C, 0.88.
Take A3G U41G A45U U54C A57C U72C U78C: the self-cleavage turned out to be 0.25.
To A3G U26C U41C A47G U66A G70A belongs 0.09; to A3U G7U G61A, 0.09.
Take A3G G8A A28U A45G U67C A75U: the self-cleavage was found to be 0.18.
To A3U G10C U60C belongs 0.34.
With A3G G10A C32G the figure was 0.31; with A3U G6A G9U C37G U60A, 0.05.
Turning to A3G U41C A64U, the self-cleavage was 0.56.
Turning to A3U A18G U69A, the self-cleavage was 0.58.
To A3U A5U A35U U41C U66C U67C belongs 0.47; to A3G G9C A13G A64G, 0.14.
A3U A56G U69C: the self-cleavage is 0.42.
In the case of A3G U25A U78C, the self-cleavage came to 0.61.
With A3U G46A A65U the figure was 0.24.
